This is one part of the list. For part of these data: At the low end of the ranking the order means little. For part of these data: Measured with an extract: partners may take part in the binding.
Assays:
Details in all cases: 20 mM HEPES pH 7.9, 100 mM NaCl, 1 mM DTT, 0.2 mg/mL BSA, 0.02% Triton X-100, 2% milk, 0.4 mg/mL salmon testes DNA; 1 h; temperature not stated; high values mean tight binding; double strand, one strand shown; sequences stand for … in GCCTAGCAC…GTGCTAGGTCTTGATTCGCTTGACGCTGCTG
[1] = target: PU.1 (IVT) (UniProt P17947); test: protein-binding microarray (PBM)
[2] = target: T1, FLI1 (endogenous, THP-1 nuclear extract) (UniProt Q01543); test: nuclear extract protein-binding microarray (nextPBM)
T1 sequence: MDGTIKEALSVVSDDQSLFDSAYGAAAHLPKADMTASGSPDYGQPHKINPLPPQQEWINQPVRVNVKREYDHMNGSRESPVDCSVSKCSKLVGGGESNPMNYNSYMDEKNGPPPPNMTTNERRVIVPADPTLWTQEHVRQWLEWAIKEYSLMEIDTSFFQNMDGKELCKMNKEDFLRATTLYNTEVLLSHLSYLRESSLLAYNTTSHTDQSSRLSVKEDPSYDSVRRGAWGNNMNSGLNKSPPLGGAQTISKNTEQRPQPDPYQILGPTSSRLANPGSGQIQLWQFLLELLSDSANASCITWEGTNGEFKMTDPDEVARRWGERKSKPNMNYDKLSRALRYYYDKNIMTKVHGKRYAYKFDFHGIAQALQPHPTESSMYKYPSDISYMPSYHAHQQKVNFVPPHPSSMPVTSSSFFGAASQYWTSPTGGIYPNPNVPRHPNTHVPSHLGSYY

[3] = system: PU.1 (endogenous, THP-1 nuclear extract) + IRF8 (endogenous, THP-1 nuclear extract); test: as above

Row | Sequence | binding signal [1] [z-score] | binding signal [2] [z-score] | binding signal [3] [z-score]
1 | TGGCAGAGGATGTGAAACTA | 0.483 | 1.72 | 33.9
2 | GATAAGAGGAACTGAACGCT | 4.26 | 1.49 | 0.107
3 | GATAAGAGGAACTGAAAGGT | 4.21 | 1.33 | 2.35
4 | CTGGAGAGGAAATGAAACTA | 1.5 | 2.87 | 35.9
5 | TGAAACAGGAAGTGAAACAA | 6.1 | 5.58 | 45
6 | GGGCAGAGGAAGTGAAACTA | 3.41 | 3.48 | 55.2
7 | CTAGCAGGGAACTGAAACTC | 0.688 | 0.00942 | 11.4
8 | TGAGAGGAGAAGCGAAACCT | 0.358 | 0.324 | 28.2
9 | GATACGAGGAACTGAAAGCT | 1.42 | 0.172 | 1.84
10 | GCTAAGAGGAACTGAAAGCT | 3.51 | 1.37 | 3.67
11 | GGTCTGAGGAAGTGAAACTT | 3.29 | 2.91 | 43.1
12 | CTGCCAGGGAAGTAAAAGCA | 0.732 | 0.493 | -2.47
13 | CAAATTAGGAAGTGAAACTG | 4.56 | 3.7 | 63.8
14 | AGAAGAAGGAAGTGAAAGAA | 4.5 | 2.51 | 4.08
15 | AAAAAAAGGAAATGAAATTA | 3.65 | 2.29 | 0.606
16 | TAAGAGGAGAAGTGAAACCT | 1.19 | 0.789 | 22.5
17 | CTTCCAGGGAAGTGAAAGCA | 1.08 | 0.688 | 6.27
18 | CTGGCAGGGTACTGAAACTC | 0.281 | -0.225 | 6.56
19 | GAAAAGGGGAACTGAAACTA | 6.15 | 3.65 | 67.3
20 | GCCTAAAGGAAGTGAAAGTG | 1.69 | 2.56 | 19.7
21 | CAGAGAGGGAAGTGAAAGCA | 3.17 | 2.08 | 9.07
22 | TAGAGGAGGAACTGAAACCA | 2.43 | 1.75 | 26.5
23 | TCGCAGAGGAAGTGAAACTA | 3.29 | 3.6 | 59.2
24 | CGGGCAGGGAACTGAAACTC | 0.702 | 0.234 | 9.32

Row | Sequence | binding signal [1] [z-score] | binding signal [2] [z-score] | binding signal [3] [z-score]
25 | TGAAACAAGAAGTGAAACCA | 1.48 | 0.919 | 39.5
26 | AAAAAAAGGAAATGGAAGTA | 4.49 | 3.01 | 0.924
27 | ATCATCAGGAACTGAAACTG | 1.18 | 0.647 | 16.5
28 | CTGGCAGGGAACTGAACCTC | 0.425 | -0.233 | 0.972
29 | GAAAAGAGGAAGGGAAACTG | 5.02 | 2.53 | 9.67
30 | TCCAGGAGGAACTGAAAGCT | 1.74 | 0.687 | 1.97
31 | TGAAACAGGAAGTGTAACCA | 6.22 | 5.31 | 2.73
32 | GAAAAGAGGAAGCGAAACTA | 6.51 | 4.24 | 81.5
33 | GATAAGAGGAACTGAAAGTT | 4.34 | 1.67 | 9.64
34 | TGAAACTGGAAGTGAAACCA | 1.68 | 2.35 | 52.1
35 | GATAAGAGGAACTGAAGGCT | 3.86 | 1.39 | 1.5
36 | GAAAAGGAGAAGTGAAACTA | 5.47 | 4.21 | 73.5
37 | GCCTAGGGGAACTGAAACTG | 1.52 | 1.1 | 21.2
38 | TTTTTAGGGAAGTGAAACTA | 6.23 | 3.46 | 80.2
39 | GGAAAGTGGAACTGAAACTT | 1.93 | 1.12 | 24.3
40 | TGAGCGGAGAAGTGAAACCT | 0.175 | 0.291 | 24.3
41 | CCAAACAGGAACTGAAAGTC | 3.17 | 2.42 | 8.67
42 | TGAAACAGGAAGTGATACCA | 6.6 | 5.77 | 29.1
43 | CCGGCAGGGAACTGAAACTC | 0.959 | 0.221 | 10.3
44 | TGAAACAGGAAGTGAAAACA | 6.7 | 5.46 | 8.93
45 | CTGGCAGGGATCTGAAACTC | -0.00696 | 0.0679 | 3.76
46 | AGAAAGAGGATGTGAAACTT | 3.54 | 3.31 | 44.3
47 | TACAGGAGGAACTGAAACCA | 2.07 | 1.29 | 30
48 | TAAAGGAGGAACTGATACCA | 3.55 | 1.2 | 6.52

Row | Sequence | binding signal [1] [z-score] | binding signal [2] [z-score] | binding signal [3] [z-score]
49 | GTTTTGAGGAACTGAAACTC | 4.5 | 2.71 | 43.3
50 | GTGTCAAGGAACTGAAACTT | 0.646 | 0.432 | 11.2
51 | TCAACAAGGAAGTGAAACTT | 3.32 | 3.26 | 41.2
52 | GAAAGAGGGAAGTGAAAGTC | 5.25 | 2.54 | 28.4
53 | TGAAACAGGAAATGAAACCA | 3.26 | 5.57 | 47.3
54 | AAAAAGAGGATGTGAAACTA | 4.49 | 3.25 | 64
55 | TGAGAGGAGAAGTGCAACCT | 0.689 | -0.294 | 1.29
56 | AAAAAAAGGAATTGAAAGTA | 2.19 | 0.731 | 7.83
57 | TTTGGAAGGAACTGAAACCA | 0.887 | 0.65 | 16.1
58 | AAAAAAAGGAACTGAAAGTA | 4.57 | 2.32 | 22.6
59 | TGAGAGGAGCAGTGAAACCT | -0.428 | -0.498 | 5.87
60 | GGCGGGAGGAAGTGAAACTT | 3.37 | 3.44 | 47.7
61 | CTGGCAGGCAACTGAAACTC | -0.282 | -0.469 | 7.6
62 | TGAGAGGTGAAGTGAAACCT | 0.0752 | -0.488 | 14
63 | TGGCAGAGGAAGCGAAACTA | 1.32 | 2.31 | 61.2
64 | GATAAGAGGTACTGAAAGCT | 0.307 | -0.0604 | 1.41
65 | CTGCCAGGGAAGTGACAGCA | 1.14 | 0.765 | -0.2
66 | CTGGCCGGGAACTGAAACTC | -0.135 | -0.0298 | 9.76
67 | AGAAAGAGGAAGGGAAACTT | 4.67 | 2.21 | 6.8
68 | AGAAATGGGAAGTGAAACTC | 5.06 | 4.03 | 54.8
69 | CTGCCAAGGAAGTGAAAGCA | 1 | 1.44 | 6.01
70 | TGGCAGAGGAATTGAAACTA | 0.131 | 0.102 | 15
71 | TGAGAGGAGAAGTGAAACAT | 1.28 | 0.48 | 3.98
72 | AATAAGAGGAACTGAAAGCT | 4.65 | 1.78 | 9.74

Row | Sequence | binding signal [1] [z-score] | binding signal [2] [z-score] | binding signal [3] [z-score]
73 | AAAAAAAGGAAATGAAACTA | 3.74 | 2.99 | 41.2
74 | TGAGAGGAGAAGTGAAACCG | 1.02 | 1.2 | 25.7
75 | TAAAGGGGGAACTGAAACCA | 2.77 | 1.7 | 31.4
76 | ACTGGGAGGAAGTGAAACTG | 3.52 | 3.53 | 55.1
77 | CAAAAGAGGAAGAGAAACTG | 4.72 | 2.24 | 13.9
78 | AGGGAGAGGAAGTGAAACTA | 4.01 | 3.67 | 65.4
79 | CTGGCAGGGAACTGAAACTT | 0.701 | 0.157 | 10.4
80 | CTTTTGAGGAACTGAAACTC | 4.02 | 2.34 | 40
81 | CTTTAGAGGAACTGAAACTC | 2.69 | 1.69 | 25.8
82 | TGAGAGGAGAAGGGAAACCT | 0.319 | 1.06 | 0.279
83 | CTGACAGGGAACTGAAACTC | 1.1 | 0.393 | 12.6
84 | GTAAAACAGAAGTGAAACTG | 1.74 | 1.03 | 55.3
85 | GATCAGAGGAACTGAAAGCT | 1.34 | 0.772 | 0.939
86 | CTGGGTGGGAAGTGAAAGTA | 2.15 | 1.26 | 21.4
87 | CTGCCAGCGAAGTGAAAGCA | -0.24 | 0.262 | 3.72
88 | ATTTCTGGGAAGTGAAACTA | 1.93 | 1.95 | 52.5
89 | CTGTCAGGGAACTGAAACTC | 0.378 | 0.519 | 8.29
90 | TAAAGGAGGAACTGAAACCA | 3.43 | 2.52 | 37.6
91 | GATAAGAGGAACTGAATGCT | 4.31 | 1.56 | 1.27
92 | GAAATTAGGAAGTGAAAGCA | 4.06 | 2.06 | 13.7
93 | TGGAAAAGGAAGTGAAACCA | 3.65 | 3.5 | 55.2
94 | CCAATGAGGAAGAGAAACTA | 2.28 | 1.57 | 8.64
95 | CTCCAGAGGAAGTGAAACTT | 2.79 | 3.16 | 43.6
96 | CTGGCAGGGAGCTGAAACTC | -0.54 | -0.784 | 2.5

Row | Sequence | binding signal [1] [z-score] | binding signal [2] [z-score] | binding signal [3] [z-score]
97 | TGAGAGGAGAAGTAAAACCT | 1.45 | 0.381 | -0.959
98 | AAAAAAAGAAAATGAAAGTA | 0.124 | -0.0854 | 17.5
99 | GAAAGGAGGATGTGAAACTA | 1.56 | 2.23 | 36.7
100 | TGAAACAGAAAGTGAAACCA | 0.0976 | 0.359 | 79.5
101 | TGGCAGAGGAAGTGAAAGTA | 3.54 | 3.21 | 28.7
102 | GATAGCAGGAAGTGAAACTA | 3.14 | 4.45 | 57.5
103 | TAAAGGAGGAACTGAAACTA | 3.53 | 2.65 | 52.7
104 | AAATAAAGGAAGTGAAACAG | 5.01 | 2.75 | 8.59
105 | CAGGAGAGGAAGTGAAACTC | 4.18 | 3.67 | 60.6
106 | GACAAGAGGAACTGAAAGCT | 2.96 | 1.17 | 3.24
107 | TGAAACAGGAAGTGAAACCA | 6.46 | 5.62 | 83.3
108 | GTGCCAGGGAAGTGAAAGCA | 1.25 | 0.548 | 3.55
109 | CAAAAAAGGAAATGAAAGTA | 2.24 | 2.41 | 15.9
110 | TAATGGAGGAACTGAAACCA | 1.93 | 1.21 | 24
111 | TATAGGAGGAACTGAAACCA | 2.42 | 1.81 | 29.6
112 | AAAAAAACGAAATGAAAGTA | -0.0717 | 0.0985 | 10.1
113 | TGGCAGATGAAGTGAAACTA | 0.23 | -0.744 | 33.3
114 | TAAAGGAGGAACTGAAATCA | 3.68 | 1.25 | 1.35
115 | CTGGCAGGGAACTTAAACTC | 0.978 | -0.135 | 0.879
116 | TGCCAGAGGAAGTGAAACTA | 2.82 | 3.59 | 54.7
117 | TGGCGGAGGAAGTGAAACTA | 2.7 | 3.26 | 70.1
118 | CTGGCAGGGAACCGAAACTC | 0.141 | 0.33 | 50.1
119 | AATTTGAGGAACTGAAAGAA | 4.81 | 1.51 | 3.7
120 | TAAAGGAGTAACTGAAACCA | -0.147 | -0.198 | 7.84
